# Test results from PMC10726135.
# The other results are listed elsewhere or left out. At the low end of the ranking the order means little. Measured with an extract: partners may take part in the binding.
# Molecular target: T1, HNF4alpha2 (COS-7 nuclear extract) (UniProt P41235)
# T1 sequence: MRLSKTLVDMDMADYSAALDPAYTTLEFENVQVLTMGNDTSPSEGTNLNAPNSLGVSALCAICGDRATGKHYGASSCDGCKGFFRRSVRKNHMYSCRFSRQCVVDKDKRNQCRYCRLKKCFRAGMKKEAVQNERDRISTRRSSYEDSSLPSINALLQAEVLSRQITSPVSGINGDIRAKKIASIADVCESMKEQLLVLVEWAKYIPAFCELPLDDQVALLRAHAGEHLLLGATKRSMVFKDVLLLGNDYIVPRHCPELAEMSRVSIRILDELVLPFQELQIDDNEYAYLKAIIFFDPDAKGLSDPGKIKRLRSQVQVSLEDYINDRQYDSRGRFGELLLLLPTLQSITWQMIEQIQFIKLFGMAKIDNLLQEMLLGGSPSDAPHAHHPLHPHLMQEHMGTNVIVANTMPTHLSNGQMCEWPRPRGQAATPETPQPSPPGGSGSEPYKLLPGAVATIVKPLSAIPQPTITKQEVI
# Assay: protein-binding microarray
# Conditions: COS-7 nuclear extract on double-stranded Agilent 4x180k PBM; binding buffer, salt, pH and temperature not given; high values mean tight binding; double strand, one strand shown; sequences stand for … in …GCCTAGGGAGATTAGAGTATCGGTCGA
row,Sequence,binding signal (log2 normalized intensity)
1,AACCCATTTGTTAGTCTCTGGGCCTCCCCA,1.8
2,CACCTGGCCAGCGACTTTAGGGGCCAAGGG,0.23
3,TCAAATGCAAAGGCAAACAGATGAAGTACT,-1.15
4,TCTTCCCATCTAACTGCCCCTGATATCTGA,2.92
5,CTGCCGAGGTGTCCTGTAAATAGTGTGTCA,1.73
6,AGGTGGAGATAAGGAATTTGTTAAGAACTG,-1.03
7,CTTCCAGGGAATAAAGAACTCTAAGCAGCG,-1.09
8,TGAGGTAGTTGAGTGCCTCCATTTCACAAA,-1.03
9,CCTCAATGTTTACACTTCCATGTTTGTCTT,2.07
10,TGAATATGTACATGGACTTTGAACCAAGAT,8.36
11,GGAGATGCCGTTAAGCAGATAAGGTGCGGG,-1.14
12,ATATTCAAACAGGTCAAGCAATGCTGGGGA,0.151
13,GGTTGGGGCCTCCCTCCGTGGGGCTCCTTT,-1.07
14,CAAATTCCTCAATCCAGTCATCTCACACAA,-1.15
15,GCCATTCCAGAAGTAGGATGGGGAGGGGGC,-0.963
16,GGCAAAGGGCAAGGCGTCTCTGCCAAGGGG,-1.14
17,AAGCTTCACTGACATTCCAGCCACTAAGAA,-1.12
18,GCTGAAAACTATGCATGCTGTGTGTGTGTG,2.28
19,CAGATAACAGCGAACATGAGGAATAAACTT,-1.04
20,CCTAGCAACCTCCACATTGCAACAATGTCC,-0.84

row,Sequence,binding signal (log2 normalized intensity)
1,GGCCCATTTTCCCATGGTCTGTAGAAGGCG,0.306
2,GCTCTGGTTCAAACAAGGCCAAAGTCTGGC,1.86
3,CTCTTCCCAACTTGGCCTCAATGTTTACAC,0.993
4,TATCTGACTGATGCTAAAGTCTACATTCTA,0.711
5,TTGACCCCTTGGCCCCGCTGTCCTGATCCC,4.2
6,CTCTGCACACACAGACATAAACACAGACAC,-1.14
7,TTGTAGCCTCATTTCACCTTTGGTCTTTGG,4.78
8,TTCTGATAAGAGCATTTTTGTATGCATAAG,1.05
9,GATTAATTACCCACAGGTGTGTTGACTCAA,0.897
10,GTTCTATGGGATGACCTTTGAGCAATAGGA,5.15
11,AGAACACGGAGTCCTTCTGGGGCTAGGTTT,-1.09
12,TCCAGATTAGAGCACAATGTGGGGAGCACA,0.53
13,TGCTGACTTTCTGTGTCTTGGCAGTGATCA,2.17
14,TCACGAAAGGCAACATCTTGAGCCAGGAAT,-1.1
15,ACGGAGAATGTAGACCTTTACCACCCTCAC,1.27
16,AAAATGAAAGCAAGGGCCAGATCAAAGGCT,-1.31
17,AGTGCAAGGGAGAAATTGCGCTAACCAGAT,-1.16
18,ATTTCTCAGGAAGTGCTTGTTCCCTCCATC,0.335
19,ACATCTCTCTCTGCAGCTGAGTAGAGGAAA,-0.811
20,ACAAACCAGCTTTGAGATGATAAAAATTTG,-1.09
